Consider two molecules from patent publication US20220288124A1.

Sequences of proteins named here, by UniProt entry; tags and fusion partners are left off. A change or cut given only in a name is not applied to a line headed by its entry. Residues count along the entry.
UniProt P51654: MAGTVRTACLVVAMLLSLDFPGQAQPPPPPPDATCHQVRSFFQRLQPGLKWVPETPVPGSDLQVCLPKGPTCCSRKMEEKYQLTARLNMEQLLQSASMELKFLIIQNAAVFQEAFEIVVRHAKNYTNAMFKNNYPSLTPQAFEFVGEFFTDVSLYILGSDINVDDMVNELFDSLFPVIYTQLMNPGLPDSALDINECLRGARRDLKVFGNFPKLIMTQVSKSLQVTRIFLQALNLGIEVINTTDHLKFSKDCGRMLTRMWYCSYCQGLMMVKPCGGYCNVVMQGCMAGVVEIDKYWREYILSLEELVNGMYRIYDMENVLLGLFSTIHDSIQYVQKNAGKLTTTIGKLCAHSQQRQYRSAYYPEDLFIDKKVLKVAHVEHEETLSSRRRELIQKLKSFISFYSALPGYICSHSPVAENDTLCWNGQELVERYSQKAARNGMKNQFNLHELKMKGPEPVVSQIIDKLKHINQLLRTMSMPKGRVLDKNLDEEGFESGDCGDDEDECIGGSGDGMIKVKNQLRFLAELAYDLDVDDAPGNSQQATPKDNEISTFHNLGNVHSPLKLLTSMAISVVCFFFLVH
soluble hGPC3 protein (recombinant human glypican 3): residues 25-560 of P51654
N2 (30-68): residues 30-68 of P51654
N3 (59-97): residues 59-97 of P51654
N4 (88-126): residues 88-126 of P51654

Assay [1] deals with soluble hGPC3 protein (recombinant human glypican 3) (human) (UniProt P51654). Nature of the assay: ELISA, recombinant mAbs on hGPC3. On the technique in general: ELISA stands for enzyme-linked immunosorbent assay.
Assay [2] shares this target. In words: ELISA of recombinant mAb on hGPC3, OD450.
For assay [3], the target named is N2 (30-68) (human) (UniProt P51654). Nature of the assay: ELISA on plate-coated synthetic peptide, anti-human IgG-HRP.
Assay [4] deals with N3 (59-97) (human) (UniProt P51654). The description is as above.
Assay [5] deals with N4 (88-126) (human) (UniProt P51654). Described as above.
Assay [6] deals with soluble hGPC3 protein (recombinant human glypican 3) (human) (UniProt P51654). In words: BLI, mAb on anti-hIgG Fc capture sensor, GPC3 at 62.5 to 1000 nM. (In general: In BLI a coated tip is dipped into the sample, and binding shifts an interference pattern.)

Results are given in words; binding and its absence hold for the method and conditions named. Some binding calls cover weakened binding; strength is not graded here. Where a sequence is shown, tags or fusion partners need not be part of it.

B1: recombinant mAb 6G11 (6G11 VL and VH fused to human IgG constant regions) (antibody, V domains shown)
VH: QVQLQQPGSELVRPGASVKLSCKASGYTFTSCWMHWVKQRPGQGLEWIGNIYPGYGNTNYDEKFKNKATLTVDTSSSTAYMQLSGLTSEDSAVYYCTRGSYLYAMDYWGQGTSVTVSS
VL: DIQMNQSPSSLSASLGDTITITCHASQNINVWLSWYQQKPGNIPKLLIYKASNLHTGVPSRFSGSGSGTGFTLTISSLQPEDIATYYCQQGQSYPWTFGGGTKLEIKR
Consider B1, for which the binding entry is listed as “binds” in assay [1]; “binds” in assay [2]; “binds” in assay [3]; “no binding (tested: 10 µg/ml)” in assay [4]; “no binding (tested: 10 µg/ml)” in assay [5]; “binds” in assay [6].

B2: recombinant mAb 12D7 (12D7 VL and VH fused to human IgG constant regions) (antibody, V domains shown)
VH: QVQLQQPGSELVRPGASVKLSCKASGYTFTSYWMHWVKQRLGQGLEWIGNIYPGSGSTNYDEKFKSKGTLTVDTSSSTAYMHLSSLTSEDSAVYYCTRGDYDWVFAYWGQGTLVTVSA
VL: DIVMTQSQKFMSTSVGDRVSVTCKASQNVGTNVAWYQQKPGQSPKALIYSASYRYSGVPDRFTGSGSGTDFTLTISNVQSEDLAEYFCQQYNSYPLTFGAGTKLELKR
For the molecule B2, the binding result in assay [1], in assay [2] and in assay [6] was “binds” throughout.
